# Measured values taken from the supplement of paper PMC8728848.
# Some of the results follow.
# Legend:
# Assay in all cases: glycan array binding signal (z-score within array); higher = stronger binding
# Details in all cases: glycan notation: IUPAC condensed, linker removed; mutation: E227A
# [1] = target: Gal3S(b1-3)[Fuc(a1-4)]GlcNAc
# Procedure, shortened: (§1)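 Glycan array data were curated from 3228 arrays in the Consortium for Functional Glycomics database and kept only where the protein sequence was available. Glycan names were converted to IUPAC-condensed notation, and columns mapping to the same glycan were averaged. The binding signal is a within-array Z-score, averaged across arrays of the same protein sequence at different concentrations or buffers and across linkers. Negative Z-scores can be read as non-binding.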
# Gal3S(b1-4)Glc = target: Gal3S(b1-4)Glc
# Procedure, shortened: as §1
# Gal3S(b1-4)Glc6S = target: Gal3S(b1-4)Glc6S
# Procedure, shortened: as §1
# Gal3S(b1-4)GlcNAc = target: Gal3S(b1-4)GlcNAc
# Procedure, shortened: as §1
# [2] = target: Gal3S(b1-4)[Fuc(a1-3)]Glc6S
# Procedure, shortened: as §1
# [3] = target: Gal3S(b1-4)[Fuc(a1-3)]GlcNAc
# Procedure, shortened: as §1
# [4] = target: Gal3S(b1-4)[Fuc(a1-3)]GlcNAc6S
# Procedure, shortened: as §1
# Gal3S4S(b1-4)GlcNAc = target: Gal3S4S(b1-4)GlcNAc
# Procedure, shortened: as §1
# Gal3S6S(b1-4)GlcNAc = target: Gal3S6S(b1-4)GlcNAc
# Procedure, shortened: as §1
# Gal3S6S(b1-4)GlcNAc6S = target: Gal3S6S(b1-4)GlcNAc6S
# Procedure, shortened: as §1
# Gal4S(b1-4)GlcNAc = target: Gal4S(b1-4)GlcNAc
# Procedure, shortened: as §1
# Gal4S6S(b1-4)GlcNAc = target: Gal4S6S(b1-4)GlcNAc
# Procedure, shortened: as §1
# Gal6P(b1-4)GlcNAc = target: Gal6P(b1-4)GlcNAc
# Procedure, shortened: as §1
# Gal6S(b1-3)GlcNAc = target: Gal6S(b1-3)GlcNAc
# Procedure, shortened: as §1
# Gal6S(b1-3)GlcNAc6S = target: Gal6S(b1-3)GlcNAc6S
# Procedure, shortened: as §1
# Gal6S(b1-4)Glc = target: Gal6S(b1-4)Glc
# Procedure, shortened: as §1
# Gal6S(b1-4)Glc6S = target: Gal6S(b1-4)Glc6S
# Procedure, shortened: as §1
# Gal6S(b1-4)GlcNAc = target: Gal6S(b1-4)GlcNAc
# Procedure, shortened: as §1
# Gal6S(b1-4)GlcNAc6S = target: Gal6S(b1-4)GlcNAc6S
# Procedure, shortened: as §1
# GalNAc(a1-3)Gal = target: GalNAc(a1-3)Gal
# Procedure, shortened: as §1
# GalNAc(a1-3)GalNAc = target: GalNAc(a1-3)GalNAc
# Procedure, shortened: as §1
# [5] = target: GalNAc(a1-3)GalNAc(b1-3)Gal(a1-4)Gal(b1-4)Glc
# Procedure, shortened: as §1
# [6] = target: GalNAc(a1-3)GalNAc(b1-3)Gal(a1-4)Gal(b1-4)GlcNAc
# Procedure, shortened: as §1
# GalNAc(b1-3)Gal = target: GalNAc(b1-3)Gal
# Procedure, shortened: as §1
# [7] = target: GalNAc(b1-3)Gal(a1-4)Gal(b1-4)GlcNAc
# Procedure, shortened: as §1
# [8] = target: GalNAc(b1-3)Gal(a1-4)Gal(b1-4)GlcNAc(b1-3)Gal(b1-4)Glc
# Procedure, shortened: as §1
# [9] = target: GalNAc(b1-3)Gal(a1-6)Gal(b1-4)Glc
# Procedure, shortened: as §1
# GalNAc(b1-3)GalNAc = target: GalNAc(b1-3)GalNAc
# Procedure, shortened: as §1
# GalNAc(b1-3)GlcNAc = target: GalNAc(b1-3)GlcNAc
# Procedure, shortened: as §1
# GalNAc(b1-4)Gal(b1-4)Glc = target: GalNAc(b1-4)Gal(b1-4)Glc
# Procedure, shortened: as §1
binder,measurement,setting,value
"Epa1-NP-mutant-E227A (Candida glabrata), Q6VBJ0 (protein) MILNPALFLNKCVCIYTTLILLLLTNGGYATSSNDISLASKDPTTFPLGCSPDITTPKKGLSMELYSYDFRKKGSYPCWDAAYLDPNYPRTGYKSHRLLAKVDGVTGNINFYYHATKGCTPQLGHLPASYNYPKPLTMTNFTMLLYGYFRPKVTGFHTFTISADDLLFVNFGAGNAFDCCRRDSSADHFGNYQAYAIWGSKTAKDELTVHLDAGVYYPIRLFYNNRAYDGALSFTFKTESNENTVSDFSEYFFSLDDTEEGCPGLISYDSSCASVKTSKIIGIDYHTETPNENLVPITKTIYHLGIPCTGTTTTPLCGSGFYDPLANKCVTINTSSTSSVTKTTSHTTSKEVSFHSSISSQKTLIPKSIPSPYGPIKSQSIPTEMETSSEISSSEYAFSDVISTPSHSPYTKKHSSLNSSSYTSTVIHSLTSYSISQGIFSTSLSEQNITSKSSTDKFSTATSMSNNITQSSIIISQFSTNNENYTTTSMHTSSDKISTETLNNSISTTTSILFSNSSTILKNNTTIISSDKDTHYHPVNPTIVCSTNKTEIICASITQPSISNSNNHWSSSVLKFNSTTVRSTLPSSAGSNETSINVPFSSSTESNTSTSSTSTSNSKMVRSTLPSSAGSNETSISVPFSSSTESNTSTSSTSTSNSKMVRSTLPSSAGSNETSINVPFSSSTESNTSTSSTSTSNSKTVRSTPFSSAGIIMTSLSQRNNKSASSYASSNSKCYNTADSCRKVHSTPSYLLTSSYTSEGVDYDCSLVSTKLKINDTNCVNNKHTTKSCLKTSVTTTIPTLEIKTARKSSSNTIGLHSYPTSSPNKSISSAPIIGYISSFKTIKTASPSYQTSDLTTITTITSLNNPGSTAVENTHESNDKSRKTSSNDISSKHSVIKETKDAVESSNKSHQTNTLKCSSIIIASSSHNSYESLGGTTLTLTLSKVYSPQNNDTLPFLEISEVNPSRTVLPESSKMMQYLTSTEERNKTARNTIATNIVSISTFHFEGEGNAIRMGYTQLLLMLIGIIVMNIGT",glycan array binding signal (z-score),[1],-0.175
same,glycan array binding signal (z-score),Gal3S(b1-4)Glc,-0.193
same,glycan array binding signal (z-score),Gal3S(b1-4)Glc6S,-0.185
same,glycan array binding signal (z-score),Gal3S(b1-4)GlcNAc,-0.192
same,glycan array binding signal (z-score),[2],-0.143
same,glycan array binding signal (z-score),[3],-0.189
same,glycan array binding signal (z-score),[4],-0.203
same,glycan array binding signal (z-score),Gal3S4S(b1-4)GlcNAc,-0.21
same,glycan array binding signal (z-score),Gal3S6S(b1-4)GlcNAc,-0.185
same,glycan array binding signal (z-score),Gal3S6S(b1-4)GlcNAc6S,0.437
same,glycan array binding signal (z-score),Gal4S(b1-4)GlcNAc,-0.203
same,glycan array binding signal (z-score),Gal4S6S(b1-4)GlcNAc,-0.201
same,glycan array binding signal (z-score),Gal6P(b1-4)GlcNAc,0.568
same,glycan array binding signal (z-score),Gal6S(b1-3)GlcNAc,0.311
same,glycan array binding signal (z-score),Gal6S(b1-3)GlcNAc6S,1.88
same,glycan array binding signal (z-score),Gal6S(b1-4)Glc,4.56
same,glycan array binding signal (z-score),Gal6S(b1-4)Glc6S,6.39
same,glycan array binding signal (z-score),Gal6S(b1-4)GlcNAc,5.93
same,glycan array binding signal (z-score),Gal6S(b1-4)GlcNAc6S,15.2
same,glycan array binding signal (z-score),GalNAc(a1-3)Gal,-0.179
same,glycan array binding signal (z-score),GalNAc(a1-3)GalNAc,-0.184
same,glycan array binding signal (z-score),[5],-0.225
same,glycan array binding signal (z-score),[6],-0.186
same,glycan array binding signal (z-score),GalNAc(b1-3)Gal,-0.19
same,glycan array binding signal (z-score),[7],-0.162
same,glycan array binding signal (z-score),[8],-0.19
same,glycan array binding signal (z-score),[9],-0.218
same,glycan array binding signal (z-score),GalNAc(b1-3)GalNAc,-0.212
same,glycan array binding signal (z-score),GalNAc(b1-3)GlcNAc,-0.195
same,glycan array binding signal (z-score),GalNAc(b1-4)Gal(b1-4)Glc,-0.159
